From PubChem BioAssay (NCI)
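Where inhibition never reached the appropriate level, the endpoint shown equals the highest concentration tested. Otherwise, values were interpolated linearly from a five-concentration, 48-hour dose response in 96-well plates. GI50 = concentration required for 50% inhibition of growth. TGI: concentration producing complete growth inhibition.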

Test system: NCI-H322M lung
Experiment: inhibition of tumour cell growth, NCI panel, 48 h

SMILES: Brc1ccc(-c2n(Cc3ccc4ccccc4c3)c(-c3ccccc3)c(-c3ccccc3)[n+]2Cc2ccc3ccccc3c2)cc1
- GI50: 377 nM
- TGI: 1420 nM
